The whole screen tested about 350,000 compounds, of which about 9,900 (2.8%) were called active. Inconclusive results, whose numbers are uncertain, are shown with a selection of clear calls. Calls come from the whole dose curve; as a rule, active = well fitted activation curve with a large enough effect; inconclusive = small, poorly fitted or top-dose-only effect; inactive = no such curve, though single readings can be large or run the other way. Potencies of inconclusive entries are left out as doubtful fits.
experiment: A quantitative high throughput screen for small molecules that induce DNA re-replication in MCF 10a normal breast cells.; note: nearly all actives have a fitted effect of over 50% in size; conditions: MCF 10A DNA re-replication, Hoechst nuclear intensity, 48 h; series mostly up to 46.1 µM
Potency is the fitted concentration of half-maximal effect; tags give direction and shape of the fitted curve.

Row | Structure (SMILES) | Potency
1 | O=C(c1ccccc1)c1ccc(OCCOCCN2CCN(Cc3ccccc3)CC2)cc1 | inconclusive [activator, partial curve]
2 | CCC(C)CCCCC(=O)NC(CCN)C(=O)NC(C(=O)NC(CCN)C(=O)NC1CCNC(=O)C(C(C)O)NC(=O)C(CCN)NC(=O)C(CCN)NC(=O)C(CC(C)C)NC(=O)C(Cc2ccccc2)NC(=O)C(CCN)NC1=O)C(C)O (configuration not stated) | inconclusive [activator, full curve]
3 | CCOC(=O)Cn1c(C(=O)OCC)cc2sccc21 | inconclusive [activator, single point]
4 | COc1ccc(CNC(=O)Cn2c(=O)n(CC(=O)N3CCCCC3)c(=O)c3sccc32)cc1 | inactive
5 | CC1=C(C(=O)OCc2ccc3c(c2)OCO3)C(c2ccc(Cl)cc2)NC(=O)N1 (configuration not stated) | inconclusive [activator, single point]
6 | COc1ccc(S(=O)(=O)N2CCN(C(=S)Nc3ccc(S(N)(=O)=O)cc3)CC2)cc1 | inactive
7 | CCc1cc(C(=O)NC2CCCc3c2cnn3-c2cccc(C)c2C)n(C)n1 (configuration not stated) | inconclusive [activator, single point]
8 | O=C(N/N=C/c1c[nH]c2ccccc12)c1ccc(Cl)cc1 | inactive
9 | COC(=O)/C=C1\S/C(=N/N=C/c2ccc(Cl)cc2)NC1=O | inconclusive [activator, single point]
10 | COc1ccc(C)cc1Nc1n[n+](-c2ccccc2)c(-c2c(OC)ccc3ccccc23)s1 | inconclusive [activator, single point]
11 | Cc1cc2oc3cc(NCCC4CCCN4C)ccc3c(=O)c2cc1C (configuration not stated) | active: 16.4 µM
12 | COc1ccc([N+](=O)[O-])cc1NC(=O)C(C)c1ccccc1 (configuration not stated) | inconclusive [activator, partial curve, poor fit]
13 | O=C(NC[C@H]1CCCO1)c1cccc2c1C(=O)c1ccc(-c3ccc(F)cc3OCc3ccccc3)cc1S2(=O)=O | inconclusive [activator, full curve, poor fit]
14 | O=C(Cc1ccccc1F)Nc1ccccc1-c1ccccc1 | inconclusive [activator, full curve, poor fit]
15 | O=[N+]([O-])c1cccc2nc3ccccc3c(NCCCn3ccnc3[N+](=O)[O-])c12 | inconclusive [activator, full curve]
16 | Cc1ccc2cc(CN(CC3CCCO3)S(=O)(=O)c3ccc4c(c3)OCCO4)c(=O)[nH]c2c1C (configuration not stated) | inconclusive [activator, single point]
17 | COc1cccc(/C=C/C(=O)c2ccc(NS(=O)(=O)c3ccc(C)cc3)cc2)c1 | active: 5.8 µM
18 | COc1ccc(C)cc1NC(=O)CSc1nc2scc(C)c2c(=O)[nH]1 | active: 18.4 µM
19 | Cc1ccc2c(c1)c1c3n2CCN(CC(N)=O)C3CCC1 (configuration not stated) | inconclusive [activator, single point]
20 | Cc1cc2c(cc1C)C(c1ccsc1)CC(=O)N2 (configuration not stated) | inconclusive [activator, single point]
21 | O=C(COC(=O)/C=C/c1ccc(OC(F)F)cc1)Nc1cccc(S(=O)(=O)N2CCOCC2)c1 | inactive
22 | O=C(CCc1ccccc1)N=C1SC2CS(=O)(=O)CC2N1Cc1ccccc1 (configuration not stated) | inconclusive [activator, single point]
23 | COc1ccc(N2CCN(C(=O)Cn3cncn3)CC2)cc1 | inactive

Row | Structure (SMILES) | Potency
24 | CCCCCCCCN1N=N[C@H]2[C@H]1[C@@H]1C[C@H]2N(C(=O)OC(C)(C)C)O1 | inconclusive [activator, partial curve, poor fit]
25 | O=C(CN1CCCc2ccccc21)N/N=C/c1ccc(O)cc1O | inconclusive [activator, single point]
26 | Nc1nonc1-n1nnc(C(=O)N/N=C/c2ccccc2Cl)c1-c1ccccc1 | inconclusive [activator, single point]
27 | COc1ccc(N/N=C(\C#N)C(=N)N2CCOCC2)cc1 | inconclusive [activator, single point]
28 | O=C(Nc1nnc(C2CC2)s1)C1Cc2ccccc2CN1S(=O)(=O)c1cccs1 (configuration not stated) | inconclusive [activator, full curve, poor fit]
29 | O=C(Nc1c(C(=O)c2ccccc2)oc2ccccc12)c1cc(-c2ccccc2O)n[nH]1 | inconclusive [activator, partial curve, poor fit]
30 | O=C(NNC1=C(C(=O)C(F)(F)F)CCC1)c1ccc(Br)cc1 | inconclusive [activator, single point]
31 | COc1cc(C2CC(=O)Oc3cc(C)c(Br)c(C)c32)cc(OC)c1OC (configuration not stated) | inconclusive [activator, partial curve, poor fit]
32 | O=C(CSc1ccccn1)Nc1ccc2c(c1)OCO2 | inconclusive [activator, single point]
33 | O=C(Nc1cccc([N+](=O)[O-])c1)NN1CCCCCC1 | inconclusive [activator, partial curve, poor fit]
34 | Cc1ccc(NC(=O)c2noc(C(C)C)c2[N+](=O)[O-])cc1 | inconclusive [activator, single point]
35 | O=[N+]([O-])c1ccc(Sc2ncc3ccccn23)nc1 | inconclusive [activator, single point]
36 | CC(=O)N(CCc1cccc(C)c1)Cc1cc2ccc(C)cc2[nH]c1=O | inconclusive [activator, partial curve, poor fit]
37 | COc1ccc(-c2sc3cc4c(cc3c2C#CCO)OCO4)cc1 | inconclusive [activator, partial curve, poor fit]
38 | CCOc1ccccc1C(=O)N(CN1CCCC1=O)c1ccc(C)c(Cl)c1 | inconclusive [activator, full curve, poor fit]
39 | COc1ccc(C(C(=O)NCc2ccc(F)cc2)N(Cc2cccnc2)C(=O)c2snc(C(N)=O)c2N)cc1 (configuration not stated) | inactive
40 | COc1ccccc1NC(=S)N(Cc1ccc(C)cc1)Cc1cccnc1 | inactive
41 | O=c1c2cc(-c3ccccc3)sc2nc2n1N=C(c1cccs1)CS2 | inconclusive [activator, single point]
42 | CC/C(=N\Nc1ccccc1[N+](=O)[O-])c1ccc(O)cc1 | inconclusive [activator, single point]
43 | CCN(CC(=O)Nc1ccc(OC)cc1)C(=O)Cc1coc2cc(C)c(C)cc12 | inactive
44 | COc1ccc(CCNC(=O)c2ccc(CSc3ccccc3)o2)cc1 | inactive
45 | Cc1nnc(NC(=O)CCS(=O)(=O)Cc2ccccc2)s1 | inconclusive [activator, single point]
46 | C=CCNC(=S)NNC(=O)c1ccc(Br)cc1 | inactive

Row | Structure (SMILES) | Potency
47 | NCCNc1cc(N2CCCC2)ccc1[N+](=O)[O-] | inactive
48 | S=C1NC[C@H](Cc2ccccc2)N1CCCCC1CCCCC1 | inconclusive [activator, single point]
49 | O=[N+]([O-])c1ccc(NS(=O)(=O)N2CCOCC2)cc1 | inactive
50 | Cc1ccc(C)c(N2C(=N)S/C(=C\c3ccc(-c4ccccc4C(=O)O)o3)C2=O)c1 | active: 18.4 µM
51 | Cc1ccc(CNc2ncccc2-c2nc3cc(Cl)ccc3o2)cc1 | inconclusive [activator, partial curve]
52 | CC1CCCN(S(=O)(=O)c2ccc(NC(=O)C3CC(=O)N(c4ccccc4)C3)cc2)C1 (configuration not stated) | inconclusive [activator, partial curve, poor fit]
53 | COc1ccc(CNC(=S)Nc2ccc(S(N)(=O)=O)cc2)cc1 | inactive
54 | O=C(COC(=O)CC1CC2CCC1C2)Nc1cccc(S(=O)(=O)NC2=NCCCCC2)c1 (configuration not stated) | inactive
55 | Cc1ccc(O)c(CNc2cnc3ccccc3c2)c1 | inconclusive [activator, single point]
56 | CCCC(c1nnnn1CCc1ccccc1)N1CCN(C(=O)c2ccco2)CC1 (configuration not stated) | inactive
57 | Cc1cccc2[nH]c(-c3ccc(NC(=O)c4ccco4)cc3)nc12 | inconclusive [activator, single point]
58 | COc1cccc(/C=N/Nc2nn3cnnc3c3ccccc23)c1O | inconclusive [activator, single point]
59 | Cc1ccc(-c2csc3ncnc(Oc4ccc5c(C)cc(=O)oc5c4)c23)cc1 | inactive
60 | COc1ccc(C(=O)C(Cc2cc(C(C)=O)ccc2OC)N2CCCC2)cc1 (configuration not stated) | inactive
61 | COc1ccc2cc(CN(CCc3ccccc3)Cc3nnnn3Cc3ccco3)c(=O)[nH]c2c1 | inconclusive [activator, single point]
62 | Cn1nc(C(F)(F)F)c2cc(NC(=O)OCc3ccc(C(C)(C)C)cc3)sc21 | active: 14.6 µM
63 | CC(C)c1c(O)nc(SCc2ccc(F)cc2)[nH]c1=O | inconclusive [activator, single point]
64 | Cc1nc(NC(=O)c2oc3ccccc3c2C)sc1C(=O)N(C)C | inconclusive [activator, partial curve, poor fit]
65 | Oc1c(Cl)cc(Cl)cc1/C=C/c1ccc2cccc(O)c2n1 | active: 6.51 µM
66 | c1ccc(CN2CCN(CCOCCOc3ccc4c(c3)CCC4)CC2)cc1 | inconclusive [activator, partial curve]
67 | O=C(CSc1nc2ccc([N+](=O)[O-])cc2[nH]1)c1ccc2ccccc2c1 | inconclusive [activator, single point]

— PubChem BioAssay AID624296 (National Center for Advancing Translational Sciences (NCATS), 2012)
